These are yes or no findings as the source states them, for the method shown. For some assays here: In cells and extracts the contact can be indirect. Some results given as binding are weak or reduced against the parent protein; the word gives no strength.
Experiments:
myc-GluA2 (HEK293) = myc-GluA2 (HEK293) (UniProt P19491); experiment: co-IP; extracts of transfected HEK293 cells (PICK1-flag with myc-GluA2 or myc-GluA1); endogenous Arf1 detected; precipitating antibody not told in the text shown (Figure S1C)
[1] = molecular target: GST-Δ105-PICK1 (PDZ domain deleted) (UniProt Q9EP80); experiment: pull-down; GST-Δ105-PICK1 complexed with his6135Δ-PICK1 immobilised on beads and incubated with GDPβS- or GTPγS-loaded Arf1; western blot; both purified
myc-GluA1 (HEK293) = myc-GluA1 (HEK293) (UniProt P19490); experiment: co-IP; extracts of transfected HEK293 cells (PICK1-flag with myc-GluA2 or myc-GluA1); endogenous Arf1 detected; precipitating antibody not told in the text shown (Figure S1C)
PICK1-flag (HEK293) = PICK1-flag (HEK293) (UniProt Q9EP80); experiment: as above
GST-PICK1 [2] = molecular target: GST-PICK1 (UniProt Q9EP80); experiment: pull-down; immobilised GST or GST-PICK1 incubated with purified his6Arf1 (WT or ΔCT) with 0.2 mM GTPγS or 0.2 mM GDPβS, no other proteins; western blot with anti-Arf1 and anti-GST; both purified
GST-PICK1 [3] = molecular target: GST-PICK1 (UniProt Q9EP80); experiment: pull-down; extracts of COS7 cells expressing HA- or myc-tagged Arf mutants incubated with GST-PICK1 or GST; western blot with anti-HA or anti-myc and anti-GST; only the target purified
[4] = molecular target: PICK1 (endogenous, cultured neurons) (rat (endogenous in cultured neurons)) (UniProt Q9EP80); experiment: co-IP; cultured neurons lysed with or without GTPγS; extracts immunoprecipitated with anti-PICK1 or control IgG; western blot
WT-PICK1-FLAG (COS7) = WT-PICK1-FLAG (COS7) (UniProt Q9EP80); experiment: co-IP; extracts of COS7 cells expressing WT- or KD27,28AA-PICK1-FLAG with HA-Arf1 Q71L, immunoprecipitated with anti-FLAG or control IgG; western blot with anti-HA or anti-FLAG
[5] = molecular target: KD27,28AA-PICK1-FLAG (COS7) (UniProt Q9EP80); experiment: as above
[6] = molecular target: PICK1 (endogenous, cultured neurons) (rat (endogenous in cultured neurons)) (UniProt Q9EP80); experiment: co-IP; cultured neurons untreated or exposed to NMDA for 3 min and chased 7 min, fixed in 1% paraformaldehyde (cross-linking), quenched with glycine, lysed without GTPγS; immunoprecipitated with anti-PICK1
[7] = molecular target: GluA2 (endogenous, cultured neurons) (rat (endogenous in cultured neurons)) (UniProt P19491); experiment: co-IP; extracts of cultured neurons infected with Sindbis virus expressing GFP or pep2-EVKI, immunoprecipitated with anti-GluA2 with or without GTPγS; western blot
GST-Arf1 = GST-Arf1 (UniProt P84077); experiment: pull-down; extracts of cultured neurons (with or without NMDA for 3 min) incubated with immobilised GST-Arf1; western blot with anti-GIT1 and anti-GST; only the target purified

Amino acid sequences for entries named in this document (tags omitted). A change or cut given only in a name is not applied to a line headed by its entry. Chains listed by the source or under a name are the forms on record and can include a tag or linker. Residues count along the entry.
UniProt P19491, residues 22-883: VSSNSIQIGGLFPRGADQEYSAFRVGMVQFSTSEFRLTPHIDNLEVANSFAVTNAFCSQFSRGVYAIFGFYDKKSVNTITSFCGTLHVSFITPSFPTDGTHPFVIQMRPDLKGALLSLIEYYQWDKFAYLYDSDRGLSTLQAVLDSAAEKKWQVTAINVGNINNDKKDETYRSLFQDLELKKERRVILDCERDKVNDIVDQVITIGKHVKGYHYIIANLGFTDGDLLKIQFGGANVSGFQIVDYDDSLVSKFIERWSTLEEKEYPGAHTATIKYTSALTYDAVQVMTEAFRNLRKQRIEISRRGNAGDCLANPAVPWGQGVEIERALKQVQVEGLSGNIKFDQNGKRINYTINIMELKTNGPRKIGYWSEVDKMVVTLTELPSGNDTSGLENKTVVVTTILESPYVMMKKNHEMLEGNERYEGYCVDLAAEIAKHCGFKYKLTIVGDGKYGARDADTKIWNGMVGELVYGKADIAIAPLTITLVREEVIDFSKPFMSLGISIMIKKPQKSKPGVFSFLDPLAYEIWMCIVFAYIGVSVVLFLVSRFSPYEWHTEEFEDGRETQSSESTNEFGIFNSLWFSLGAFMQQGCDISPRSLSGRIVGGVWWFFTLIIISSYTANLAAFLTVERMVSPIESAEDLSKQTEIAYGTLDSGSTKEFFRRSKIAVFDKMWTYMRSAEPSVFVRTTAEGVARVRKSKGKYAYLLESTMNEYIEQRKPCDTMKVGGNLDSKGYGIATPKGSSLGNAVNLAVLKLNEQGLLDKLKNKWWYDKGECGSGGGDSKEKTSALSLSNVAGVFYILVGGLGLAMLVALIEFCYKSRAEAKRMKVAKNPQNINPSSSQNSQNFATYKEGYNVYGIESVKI
UniProt Q9EP80: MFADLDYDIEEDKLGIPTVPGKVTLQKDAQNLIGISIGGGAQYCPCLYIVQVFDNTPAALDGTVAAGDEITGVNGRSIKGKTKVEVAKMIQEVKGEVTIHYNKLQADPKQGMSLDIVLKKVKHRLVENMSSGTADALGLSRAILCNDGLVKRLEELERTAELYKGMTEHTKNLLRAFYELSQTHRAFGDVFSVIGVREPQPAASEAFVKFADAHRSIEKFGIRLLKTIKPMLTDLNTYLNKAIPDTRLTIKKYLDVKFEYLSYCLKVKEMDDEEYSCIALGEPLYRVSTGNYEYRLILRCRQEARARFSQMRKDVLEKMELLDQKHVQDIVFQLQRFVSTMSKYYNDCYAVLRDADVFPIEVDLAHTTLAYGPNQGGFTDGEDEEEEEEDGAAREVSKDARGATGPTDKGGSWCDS
GST-Δ105-PICK1 (PDZ domain deleted): residues 106-416 of Q9EP80
KD27,28AA-PICK1-FLAG (COS7) (Q9EP80, form named): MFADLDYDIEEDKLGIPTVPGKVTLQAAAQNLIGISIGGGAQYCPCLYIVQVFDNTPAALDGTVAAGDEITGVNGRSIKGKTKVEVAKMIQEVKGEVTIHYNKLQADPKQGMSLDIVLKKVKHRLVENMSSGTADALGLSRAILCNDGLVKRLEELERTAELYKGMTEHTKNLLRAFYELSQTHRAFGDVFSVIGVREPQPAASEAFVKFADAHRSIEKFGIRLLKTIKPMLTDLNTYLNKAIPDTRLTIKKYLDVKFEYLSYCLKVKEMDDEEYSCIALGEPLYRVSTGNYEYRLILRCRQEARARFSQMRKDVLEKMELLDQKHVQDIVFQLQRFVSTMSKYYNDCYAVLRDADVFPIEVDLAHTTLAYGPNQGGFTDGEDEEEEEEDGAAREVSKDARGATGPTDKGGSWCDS
UniProt P19490, residues 19-907: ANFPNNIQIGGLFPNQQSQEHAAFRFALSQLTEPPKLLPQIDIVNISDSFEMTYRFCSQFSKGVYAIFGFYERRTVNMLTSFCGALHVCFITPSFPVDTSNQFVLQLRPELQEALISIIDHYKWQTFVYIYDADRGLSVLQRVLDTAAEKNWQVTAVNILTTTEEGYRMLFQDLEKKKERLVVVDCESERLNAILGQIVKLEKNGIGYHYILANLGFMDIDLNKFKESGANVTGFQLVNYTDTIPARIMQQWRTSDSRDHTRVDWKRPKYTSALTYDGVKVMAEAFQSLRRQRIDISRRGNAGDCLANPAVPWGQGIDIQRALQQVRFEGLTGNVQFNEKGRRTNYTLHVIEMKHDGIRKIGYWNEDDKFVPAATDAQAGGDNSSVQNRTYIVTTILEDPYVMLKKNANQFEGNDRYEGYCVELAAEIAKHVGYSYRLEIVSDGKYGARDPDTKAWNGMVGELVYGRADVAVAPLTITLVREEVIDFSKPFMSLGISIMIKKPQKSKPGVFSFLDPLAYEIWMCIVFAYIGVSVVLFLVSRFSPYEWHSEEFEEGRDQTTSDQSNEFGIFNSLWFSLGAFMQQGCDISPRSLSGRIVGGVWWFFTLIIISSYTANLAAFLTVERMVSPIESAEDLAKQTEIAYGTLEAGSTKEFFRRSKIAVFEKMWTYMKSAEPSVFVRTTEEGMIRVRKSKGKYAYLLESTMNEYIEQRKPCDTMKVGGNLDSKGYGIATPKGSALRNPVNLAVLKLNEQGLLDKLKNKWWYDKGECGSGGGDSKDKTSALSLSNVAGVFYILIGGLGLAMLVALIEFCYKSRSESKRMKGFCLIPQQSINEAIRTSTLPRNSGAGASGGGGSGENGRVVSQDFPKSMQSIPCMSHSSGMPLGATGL
UniProt P84077: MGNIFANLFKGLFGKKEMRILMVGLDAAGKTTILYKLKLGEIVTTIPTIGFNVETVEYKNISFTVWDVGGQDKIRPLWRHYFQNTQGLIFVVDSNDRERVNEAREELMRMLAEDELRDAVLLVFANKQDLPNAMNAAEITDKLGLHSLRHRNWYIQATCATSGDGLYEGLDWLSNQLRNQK
UniProt P62330: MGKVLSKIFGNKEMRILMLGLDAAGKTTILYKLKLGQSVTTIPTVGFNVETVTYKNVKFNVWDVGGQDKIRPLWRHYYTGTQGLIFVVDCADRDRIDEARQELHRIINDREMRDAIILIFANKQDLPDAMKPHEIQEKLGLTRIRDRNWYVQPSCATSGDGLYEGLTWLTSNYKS
UniProt P84079: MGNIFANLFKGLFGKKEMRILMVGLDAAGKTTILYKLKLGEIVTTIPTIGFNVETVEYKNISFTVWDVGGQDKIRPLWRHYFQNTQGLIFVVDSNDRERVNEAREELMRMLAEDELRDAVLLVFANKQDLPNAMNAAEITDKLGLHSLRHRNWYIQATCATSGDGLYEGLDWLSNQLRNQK

## PICK1-flag (HEK293) (from UniProt Q9EP80 1-416)
myc-GluA2 (HEK293)
  binding: binds

## his6-135Δ-PICK1 (PDZ domain only) (from UniProt Q9EP80 1-135) (domain or fragment)
[1]
  binding: binds

## Arf1 (endogenous, HEK293 cells) (from UniProt P84077 1-181)
myc-GluA1 (HEK293)
  binding: no binding
PICK1-flag (HEK293)
  binding: binds

## his6-ΔCT-Arf1 (from UniProt P84077 1-177) (domain or fragment)
GST-PICK1 [2]
  binding: no binding

## myc-Arf6 T27N (dominant-negative) (from UniProt P62330 1-175)
GST-PICK1 [3]
  binding: no binding

## myc-Arf6 Q67L (constitutively active) (from UniProt P62330 1-175)
GST-PICK1 [3]
  binding: no binding

## GluA2 (endogenous, cultured neurons) (from UniProt P19491 22-883) (receptor)
[4]
  binding: binds

## HA-Arf1 Q71L (constitutively active) (from UniProt P84077 1-181)
WT-PICK1-FLAG (COS7)
  binding: binds
[5]
  binding: no binding
GST-PICK1 [3]
  binding: binds

## Arf1 (endogenous, cultured neurons) (from UniProt P84079 1-181)
[6]
  binding: binds

## PICK1 (endogenous, cultured neurons) (from UniProt Q9EP80 1-416)
[7]
  binding: binds

B1: GIT1 (endogenous, cultured neurons) (protein, UniProt Q9Z272 1-770)
chain: MSRKGPRAEVCADCSAPDPGWASISRGVLVCDECCSVHRSLGRHISIVKHLRHSAWPPTLLQMVHTLASNGANSIWEHSLLDPAQVQSGRRKANPQDKVHPIKSEFIRAKYQMLAFVHKLPCRDDDGVTAKDLSKQLHSSVRTGNLETCLRLLSLGAQANFFHPEKGTTPLHVAAKAGQTLQAELLVVYGADPGSPDVNGRTPIDYARQAGHHELAERLVECQYELTDRLAFYLCGRKPDHKNGHYIIPQMADRSRQKCMSQSLDLSELAKAAKKKLQALSNRLFEELAMDVYDEVDRRENDAVWLATQNHSTLVTERSAVPFLPVNPEYSATRNQGRQKLARFNAREFATLIIDILSEAKRRQQGKSLSSPTDNLELSARNQSDLDDQHDYDSVASDEDTDQEPLPSAGATRNNRARSMDSSDLSDGAVTLQEYLELKKALATSEAKVQQLMKVNSSLSDELRKLQREIHKLQAENLQLRQPPGPVPVPSLPSERAEHTLMGPGGSTHRRDRQAFSMYEPGSALKPFGGAPGDELATRLQPFHSTELEDDAIYSVHVPAGLYRIRKGVSASSVTFTPSSPLLSSSQEGSRHASKLSRHGSGAESDYENTQSGEPLLGLEGKRFLELSKEDELHAELESLDGDPDPGLPSTEDVILKTEQVTKNIQELLRAAQEFKHDSFVPCSEKIHLAVTEMASLFPKRPALEPVRSSLRLLNASAYRLQSECRKTVPPEPGAPVDFQLLTQQVIQCAYDIAKAAKQLVTITTREKKQ
GST-Arf1
  binding: binds

— publication PMC3725416
